PubChem BioAssay AID686979 (National Center for Advancing Translational Sciences (NCATS), 2013)
Among all 420,000 compounds or so, about 50,000 (12%) were called active. Inconclusive means that the source gave no clear call. Such entries were picked first, then a sample of the others. The call rests on the fitted dose curve; in most records, active means well fitted inhibition curve with a large enough effect; inconclusive means small, poorly fitted or top-dose-only effect; inactive means flat fitted curve, though single readings scatter. Potencies of inconclusive entries are left out as doubtful fits.
On the % scale 0 is the no-effect control and ±100 the full control effect; potency means the concentration at half of the fitted maximal effect; tags describe the fitted curve by direction and shape.

Assay: qHTS for Inhibitors of human tyrosyl-DNA phosphodiesterase 1 (TDP1): qHTS in cells in presence of CPT; further: nearly all actives have a fitted effect of over 55% in size
Conditions: chicken DT40 Tdp1-/-;hTDP1 cells + 20 nM CPT, ATP luminescence, 48 h; activity change, negative = growth inhibition: at 46.2 µM (top of the series) unless noted
Outline: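 Chicken DT40 Tdp1-/- cells complemented with human TDP1, 400 cells/well, exposed to compounds plus 20 nM camptothecin for at least 48 h at 37 C; viability read as ATP content by CellTiter-Glo luminescence.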
For `CSc1ccccc1OCc1cc(C(=O)N(Cc2nccn2C)C(C)C)no1`, the Potency was active: 18.4 µM. In the case of `Cc1cc([N+](=O)[O-])nn1Cc1noc(C(=O)NCc2ccc3c(c2)OCO3)n1`, the activity change, negative = growth inhibition is reported as inconclusive: -25.8% [inhibitor]. In the case of `CC(C)(C)Nc1nc(NCc2cccnc2)nc(N2CCOCC2)n1`, the “activity change, negative = growth inhibition” value is reported as inactive: -1.29%. For `C[N+](C)(C)CC/C=C1/c2ccccc2CSc2ccccc21`, the Potency was inconclusive [inhibitor, single point]. In the case of `COc1cccc(C(O)c2nc(-c3ccc(F)c(Cl)c3)cs2)c1` (centres undefined), the Potency is reported as active: 16.4 µM. With `Cc1cc(C)cc(-n2ccnc2SCC(=O)Nc2nccs2)c1` the Potency was inconclusive [inhibitor, partial curve, poor fit]. With `CC(C)CCSc1nc2c(c(=O)[nH]c(=O)n2C)n1CCCc1ccccc1` the Potency was inconclusive [inhibitor, single point]. In the case of `CCc1ccccc1NC(=O)C1c2ccccc2Oc2ccccc21`, the Potency is reported as inconclusive [inhibitor, single point]. For `O=c1cc(CN2CCN(c3ccccc3F)CC2)c2cc(O)c(-c3ccccc3)cc2o1`, the Potency was inconclusive [inhibitor, partial curve, poor fit]. In the case of `Fc1ccc(Cn2nnnc2C(c2cccs2)N2CCCCCC2)cc1` (centres undefined), the Potency is reported as inconclusive [inhibitor, single point]. With `COc1ccc(Cl)cc1NS(=O)(=O)c1ccc(OC)c(OC)c1` the “activity change, negative = growth inhibition” value was inactive: -5.39%. For `Cc1cc(C)cc(NC(=O)C2CCN(C(=O)c3cccs3)CC2)c1`, the Potency was inconclusive [inhibitor, full curve, poor fit]. In the case of `O=C(O)CSc1cc(C(=O)c2ccccc2O)cn2c(=O)c3c4c(sc3nc12)CCCC4`, the “activity change, negative = growth inhibition” value is reported as inactive: 3.11%. In the case of `CCN1CCN(C(=O)c2ccc3c(c2)N(Cc2cccc(F)c2)C(=O)c2ccccc2S3)CC1`, the Potency is reported as inconclusive [inhibitor, single point]. With `COC(=O)Nc1ccc(S(=O)(=O)NNC(=O)c2c(O)c3ccccc3[nH]c2=O)cc1` the Potency was inconclusive [inhibitor, single point]. In the case of `CSc1sc(C(=O)O)c(C)c1C(C)=O`, the “activity change, negative = growth inhibition” value is reported as inactive: 0.331%. With `CCCCNC(=O)CCCCCn1c(=O)[nH]c2cc(C(=O)OC)ccc2c1=O` the Potency was inconclusive [inhibitor, full curve]. With `CCOC(=O)c1cc(-c2ccc(C)cc2)n(CCC(=O)Nc2ccc(OC)c(OC)c2)c1C` the Potency was inconclusive [inhibitor, single point]. In the case of `CC(NC(=O)c1cc(COc2c(F)cccc2F)on1)c1cnn(-c2ccccc2)c1` (centres undefined), the Potency is reported as inconclusive [inhibitor, single point]. With `O=S(=O)(c1ccc2nc(COc3ccc(Cl)cc3Cl)[nH]c2c1)N1CCOCC1` the Potency was inconclusive [inhibitor, single point]. In the case of `Clc1nc(Nc2ccc(N3CCOCC3)cc2)c2ccccc2n1`, the Potency is reported as inconclusive [inhibitor, single point]. In the case of `Nc1nc2ccccc2n1S(=O)(=O)c1ccc([N+](=O)[O-])cc1`, the Potency is reported as active: 29.1 µM. In the case of `N#CCCN(Cc1cccnc1)S(=O)(=O)c1ccc(S(=O)(=O)N2CCCCCC2)cc1`, the Potency is reported as inconclusive [inhibitor, single point]. With `CCOc1cc(C#N)c(NC(=O)CSc2nnnn2-c2ccc(OC)cc2)cc1OCC` the Potency was inconclusive [inhibitor, partial curve, poor fit]. For `CCCCCN1C(C(=O)c2ccccc2)=C(NC(=O)c2ccccc2Cl)c2ccccc2S1(=O)=O`, the Potency was inconclusive [inhibitor, single point]. In the case of `C=CCNc1ncnc2c1ncn2[C@H]1CN(Cc2cccs2)C[C@@H](CO)O1`, the Potency is reported as inconclusive [inhibitor, partial curve, poor fit]. With `CC1CC(C)CN(S(=O)(=O)c2ccc(C(=O)NCCCn3ccnc3)cc2)C1` (centres undefined) the Potency was active: 29.1 µM. In the case of `FC(F)(F)c1nc2ccccc2n2c(-c3ccc(Cl)cc3)nnc12`, the Potency is reported as active: 7.31 µM. In the case of `CCN(Cc1cnn(C)c1)C(=O)c1ccc2nc(Cc3ccccc3F)oc2c1`, the Potency is reported as inconclusive [inhibitor, single point]. For `O=C(c1ccc(Cl)c(Cl)c1)c1cnc(Nc2ccccc2)s1`, the Potency was inconclusive [inhibitor, partial curve, poor fit]. In the case of `NC(=S)N/N=C/c1ccc(C(F)(F)F)cc1`, the Potency is reported as active: 20.6 µM. In the case of `COC(=O)c1c(NC(=O)COc2cc(C)ccc2C(C)C)sc2c1CCC(C)C2` (centres undefined), the “activity change, negative = growth inhibition” value is reported as inactive: 1.16%. With `Cc1nn2c3ccccc3nc2c2ccccc12` the Potency was inconclusive [inhibitor, single point]. In the case of `O=C(Cn1cnc2c(nnn2-c2ccc(F)cc2)c1=O)NCc1ccco1`, the activity change, negative = growth inhibition is reported as inconclusive: -35.6% [inhibitor].
